# Source: the supplement of paper PMC8748497
# This is one part of the list.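 Rule for the calls: active = fold change of at least 2 over DMSO control; inactive = below 2-fold.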 Repeats are few or missing, and single values can be far off.
# Tested on: HEK293 ARE/NRF2-luciferase reporter
# Assay: ARE/NRF2 luciferase reporter activity, fold change over DMSO control; higher = stronger NRF2/ARE reporter activation
# Conditions: 10 µM; 24 h
row,SMILES,ARE/NRF2 luciferase reporter activity
1,CC(=O)Nc1ccc(S(=O)(=O)c2ccc(NC(C)=O)cc2)cc1,inactive: 1.09
2,CCN1CC(CCN2CCOCC2)C(c2ccccc2)(c2ccccc2)C1=O (centres undefined),inactive: 1.12
3,COc1c(O)cc(O)cc1O,inactive: 1.1
4,Clc1ccc(CSC(Cn2ccnc2)c2ccc(Cl)cc2Cl)cc1 (centres undefined),inactive: 1.08
5,CC[C@H]1OC(=O)[C@H](C)[C@@H](O[C@H]2C[C@@](C)(OC)[C@@H](O)[C@H](C)O2)[C@H](C)[C@@H](O[C@@H]2O[C@H](C)C[C@H](N(C)C)[C@H]2O)[C@](C)(OC)C[C@@H](C)C(=O)[C@H](C)[C@@H](O)[C@]1(C)O,inactive: 1.06
6,COc1ccc(C2CNC(=O)C2)cc1OC1CCCC1 (centres undefined),inactive: 0.861
7,N=C(N)N1CCc2ccccc2C1,inactive: 0.842
8,COCCc1ccc(OCC(O)CNC(C)C)cc1 (centres undefined),inactive: 0.986
9,CC(C)=CCc1c2c(c3occ(-c4ccc(O)c(O)c4)c(=O)c3c1O)C=CC(C)(C)O2,active: 3.2
10,CC(C)=CCC/C(C)=C/CC/C(C)=C/CC/C(C)=C/CC/C(C)=C/CC/C(C)=C/CC/C(C)=C/CC/C(C)=C/CC/C(C)=C/CO,inactive: 0.976
11,O=C1CCC[C@@H]2[C@H]3CCC[N+]4([O-])CCC[C@@H](CN12)[C@@H]34 (some centres undefined),inactive: 0.871
12,COc1ccccc1O,inactive: 1.16
13,Cc1cn[nH]c1,inactive: 1.13
14,Oc1cc(O)c2c(c1)O[C@H](c1cc(O)c(O)c(O)c1)[C@H](O)[C@H]2c1c(O)cc(O)c2c1O[C@H](c1cc(O)c(O)c(O)c1)[C@H](O)[C@H]2c1c(O)cc(O)c2c1O[C@H](c1cc(O)c(O)c(O)c1)[C@H](O)C2,inactive: 0.952
